Our source for the Tm values is FireProtDB (doi:10.1006/jmbi.1999.3442).

For this series the following is noted: Gallus gallus, Thermal, DSC, Sodium acetate 0.1 M, reversible: Unknown.

On to “Lysozyme C wild type (chain not printed)”, for which the Tm (pH 3.1) turned out to be 68.2 °C and the Tm (pH 3.7) came to 75.9 °C.

The Tm is the temperature at which the thermal transition is half complete.
